These are yes or no findings as the source states them, for the method shown. In cells and extracts the contact can be indirect. Some results given as binding are weak or reduced against the parent protein; the word gives no strength.

Chains of the proteins cited; added tags and fusions are not shown. Residues count along the entry.
UniProt P0ADC1, residues 19-193: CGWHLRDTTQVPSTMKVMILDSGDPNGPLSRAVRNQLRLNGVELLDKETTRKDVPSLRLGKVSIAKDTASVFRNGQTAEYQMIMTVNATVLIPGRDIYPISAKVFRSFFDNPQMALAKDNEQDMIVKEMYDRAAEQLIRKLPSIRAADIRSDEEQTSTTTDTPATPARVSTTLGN
UniProt P0AC02, residues 20-245: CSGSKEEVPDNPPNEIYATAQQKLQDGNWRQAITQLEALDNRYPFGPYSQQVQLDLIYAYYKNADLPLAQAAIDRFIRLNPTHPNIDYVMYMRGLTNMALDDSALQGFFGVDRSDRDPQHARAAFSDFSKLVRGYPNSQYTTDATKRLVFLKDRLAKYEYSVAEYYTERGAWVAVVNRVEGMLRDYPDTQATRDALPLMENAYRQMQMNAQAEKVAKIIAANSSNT
UniProt P0A937, residues 20-113: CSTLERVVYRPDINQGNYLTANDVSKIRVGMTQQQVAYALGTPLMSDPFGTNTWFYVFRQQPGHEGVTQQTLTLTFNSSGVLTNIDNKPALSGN

This passage reports binding results from publication PMC10567701.

For test [1], the target named is LptE^His (Escherichia coli) (UniProt P0ADC1). As to the kind of experiment: pull-down; Ni-affinity purification of LptE^His from the DDM-solubilized envelope fraction of ΔlptM cells with pLptDE^His or its LptD Cys-to-Ser derivatives; Ni-NTA 2 h at 4 °C, 50 mM Tris-HCl pH 8, 150 mM NaCl, DDM; SDS-PAGE or BN-PAGE, Coomassie staining or Western blotting. On the technique in general: In western blotting, separated proteins are transferred to a membrane and probed.

The target is the same in test [2]. As to the kind of experiment: pull-down; Ni-affinity purification of LptE^His from the DDM-solubilized envelope fraction of wild-type (lptM^+) cells with pLptDE^His; Ni-NTA 2 h at 4 °C, 50 mM Tris-HCl pH 8, 150 mM NaCl, DDM; SDS-PAGE or BN-PAGE, Coomassie staining or Western blotting.

Consider BamD (from UniProt P0AC02 20-245), for which the results for the binding result in test [1] and in test [2] were “binds” and “no binding (condition: from lptM^+ cells (LptM present))”, respectively.
The like results for BamE (from UniProt P0A937 20-113) were, in that order, “binds” and “no binding (condition: from lptM^+ cells (LptM present))”.
